This experiment deals with human Cav2.2 (Homo sapiens, UniProt Q00975). In words: In vitro assessment of calcium channel activity using FLIPR (Ca2+ influx in IMR32 cells). It counts as cell-based. The settings on record: IMR32 cells endogenously expressing human Cav2.2; 60 minute pre-incubation; 2 μM nifedipine; depolarized with 80 mM KCl; average of at least two runs unless marked (*). As to the method: (i) In Vitro Assessment of Calcium Channel Activity Using FLIPR
The IMR32 cells were maintained in MEM media containing 10% (v/v) FBS, 1% (v/v) antibiotic/antimitotic, 1% (v/v) sodium pyruvate and 1% (v/v) MEM NEAA. Following dissociation in 0.05% (v/v) trypsin/EDTA, cells were seeded into black 1×96-well plates (Corning Cellbind) at a density of 1-1.2×10^5 cells/well and incubated in the maintenance media above for 48 hours at 37° C. Immediately prior to performing the assay the media was removed and cells were loaded for 1.5 hours with 1× Calcium 4 dye prepared in HBSS (137 mM NaCl, 5.4 mM KCl, 0.25 mM Na2HPO4, 0.44 mM KH2PO4, 1.3 mM CaCl2, 1 mM MgSO4, 4.2 mM NaHCO3) containing HEPES pH 7.4 at room temperature. After dye loading and a subsequent 60 minute pre-incubation with compounds (full log dilutions from 10 μM to 0.1 nM) in the presence of 1.3 mM CaCl2 and 2 μM nifedipine to block endogenous L-type channels, the external Ca^2+concentration was increased to 5 mM CaCl2 and the cells concomitantly depolarized with 80 mM KCl to assay channel activity. To determine the IC50 values, the percent inhibition of the compound at each concentration was determined relative to the activity in the absence of inhibitor, and data was fitted using non-linear regression sigmoidal dose response curve analysis with GraphPad Prism®. Unless otherwise indicated (*), the reported values are average values from at least two runs (i.e., n≧2).
Consider `O=C(CCC(F)(F)F)N1CCN2C[C@@H](Nc3cccc(C(F)(F)F)n3)C[C@H]2C1` [Example 29, 4,4,4-trifluoro-1-[(7S,8aS)-7-{[6-(trifluoromethyl)pyridin-2-yl]amino}-hexahydropyrrolo[1,2-a]pyrazin-2(1H)-yl]butan-1-one], for which the IC50 (commonly the midpoint of a concentration-inhibition curve) was 13.1 µM.
Consider `O=C(CC(F)(F)F)N1CCN2C[C@@H](Nc3cccc(C(F)(F)F)n3)C[C@H]2C1` [Example 30, 3,3,3-trifluoro-1-[(7S,8aS)-7-{[6-(trifluoromethyl)pyridin-2-yl]amino}-hexahydropyrrolo[1,2-a]pyrazin-2(1H)-yl]propan-1-one], for which the IC50 was greater than 30 µM.
With `O=C(c1cccc(C(F)(F)F)c1)N1CCN2C[C@@H](Nc3ccc(Cl)cn3)C[C@H]2C1` [Example 31, [(7S,8aS)-7-[(5-chloropyridin-2-yl)amino]hexahydropyrrolo[1,2-a]pyrazin-2(1H)-yl][3-(trifluoromethyl)phenyl]methanone], the IC50 stood at 3.83 µM.
Regarding `CC(C)(C)OC(=O)N1CCN2C[C@@H](Nc3nccc(C(F)(F)F)n3)C[C@H]2C1` [Example 32, tert-butyl (7S,8aS)-7-{[4-(trifluoromethyl)pyrimidin-2-yl]amino}-hexahydropyrrolo[1,2-a]pyrazine-2(1H)-carboxylate], the IC50 was found to be 8.45 µM.
For the molecule `FC(F)(F)c1ccnc(N[C@H]2C[C@H]3CNCCN3C2)n1` [Example 33, (7S,8aS)-N-[4-(trifluoromethyl)pyrimidin-2-yl]octahydropyrrolo[1,2-a]-pyrazin-7-amine], the IC50 was greater than 30 µM.
`O=C(c1ccc(F)c(Cl)c1)N1CCN2C[C@@H](Nc3nccc(C(F)(F)F)n3)C[C@H]2C1` [Example 34, (3-chloro-4-fluorophenyl)[(7S,8aS)-7-{[4-(trifluoromethyl)pyrimidin-2-yl]-amino}hexahydropyrrolo[1,2-a]pyrazin-2(1H)-yl]methanone]: the IC50 was 7.84 µM.
Consider `FC(F)(F)c1ccnc(N[C@H]2C[C@H]3CN(c4ccc(Cl)cn4)CCN3C2)n1` [Example 35, (7S,8aS)-2-(5-chloropyridin-2-yl)-N-[4-(trifluoromethyl)pyrimidin-2-yl]-octahydropyrrolo[1,2-a]pyrazin-7-amine], for which the IC50 came to 3.69 µM.
`FC(F)(F)c1cccc(N2CCN3C[C@@H](Nc4nccc(C(F)(F)F)n4)C[C@H]3C2)n1` [Example 36, (7S,8aS)-2-[6-(trifluoromethyl)pyridin-2-yl]-N-[4-(trifluoromethyl)-pyrimidin-2-yl]octahydropyrrolo[1,2-a]pyrazin-7-amine]: the IC50 worked out at 1.53 µM.
The value for `FC(F)(F)c1cccc(N2CCN3C[C@@H](Nc4ccc(Cl)cn4)C[C@H]3C2)n1` [Example 37, (7S,8aS)-N-(5-chloropyridin-2-yl)-2-[6-(trifluoromethyl)pyridin-2-yl]-octahydropyrrolo[1,2-a]pyrazin-7-amine] was 1.93 µM.
With `FC(F)(F)c1ccnc(N2CCN3C[C@@H](Nc4ccc(Cl)cn4)C[C@H]3C2)n1` [Example 38, (7S,8aS)-N-(5-chloropyridin-2-yl)-2-[4-(trifluoromethyl)pyrimidin-2-yl]-octahydropyrrolo[1,2-a]pyrazin-7-amine], the IC50 turned out to be 1.82 µM.
The same measure for `FC(F)(F)c1cccc(N[C@H]2C[C@H]3CN(c4cccc(C(F)(F)F)n4)CCN3C2)n1` [Example 39, (7S,8aS)-N,2-bis[6-(trifluoromethyl)pyridin-2-yl]octahydropyrrolo[1,2-a]-pyrazin-7-amine]: 2.35 µM; for `FC(F)(F)c1cccc(N[C@H]2C[C@H]3CN(c4ccc(Cl)cn4)CCN3C2)n1` [Example 40, (7S,8aS)-2-(5-chloropyridin-2-yl)-N-[6-(trifluoromethyl)pyridin-2-yl]-octahydropyrrolo[1,2-a]pyrazin-7-amine]: 5.63 µM; for `CC(C)(C)OC(=O)N1CCN2C[C@@H](NS(=O)(=O)c3cccc(C(F)(F)F)c3)C[C@H]2C1` [Example 41, tert-butyl (7S,8aS)-7-({[3-(trifluoromethyl)phenyl]sulfonyl}amino)-hexahydropyrrolo[1,2-a]pyrazine-2(1H)-carboxylate]: 1.42 µM.

Values taken from US8669255B2, “Substituted octahydropyrrolo[1,2-a]pyrazines as calcium channel blockers” (AbbVie Inc., priority 2011, dated 2014).
